According to the supplement of paper PMC5919970:
In all, about 2,000 compounds were measured (“fractional viability relative to vehicle”: median about 0.91, lowest 2% from about 0.045 on). Some of the results follow.

Test system: TYKNU
Test: fractional viability relative to vehicle; TYKNU is a high-grade serous ovarian cancer line; higher = less growth inhibition
Details: 72 h
In short: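 TYKNU control cells or lentiCRISPRv2 knockout derivatives were plated at 500 cells per well in duplicate into drug-stamped 384-well plates holding a ~2100-compound library at 2 or 10 μM. Culture was in RPMI 1640 with 10% FBS at 37 °C in 5% CO2, with 72 h of drug treatment. Viability was measured by Cell Titer Glo luminescence, and the averaged duplicate treatment wells were normalised to duplicate control wells at the same plate position.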

[1] = 2uM, genotype: DNM1L knockout (sgDNM1L #1)
[2] = 2uM, genotype: sgCTRLA1 (non-targeting control)
[3] = 10uM, genotype: DNM1L knockout (sgDNM1L #1)
[4] = 10uM, genotype: sgCTRLA1 (non-targeting control)

Row | Structure (SMILES) | fractional viability [1] | fractional viability [2] | fractional viability [3] | fractional viability [4]
1 | COc1ccc2[nH]cc(CCNC(C)=O)c2c1 [Melatonin] | 1.13 | 1.01 | 0.94 | 1.04
2 | Cc1ccc(C(=O)c2cc(O)c(O)c([N+](=O)[O-])c2)cc1 [Tolcapone] | 1.04 | 0.931 | 0.84 | 0.809
3 | CCN(Cc1ccncc1)C(=O)C(CO)c1ccccc1 (stereo unspecified) [Tropicamide] | 0.962 | 0.999 | 1.02 | 1.04
4 | CC(=O)O/N=C1\C(=O)N(Cc2cc(Cl)ccc2Cl)c2ccc(Cl)cc21 | 0.699 | 1.05 | 0.525 | 0.821
5 | Cc1ncc([N+](=O)[O-])n1CCO [Metronidazole] | 1.24 | 1.17 | 1.28 | 1.18
6 | O=C(Cc1cccc(OC(F)(F)F)c1)Nc1ccc(CCCCc2nnc(NC(=O)Cc3ccccn3)s2)nn1 | 0.206 | 0.227 | 0.19 | 0.0912
7 | CCN(CC)CC#CCOC(=O)C(O)(c1ccccc1)C1CCCCC1 (stereo unspecified) [Oxybutynin] | 1.03 | 1.06 | 0.774 | 0.996
8 | CCN(CC)CC#CCOC(=O)C(O)(c1ccccc1)C1CCCCC1 (stereo unspecified) [Oxybutynin chloride] | 1.07 | 1.07 | 0.767 | 1.01
9 | CCn1cc(C(=O)O)c(=O)c2ccc(C)nc21 [Nalidixic acid] | 0.85 | 1.11 | 0.812 | 1.1
10 | COc1ccc(-c2oc3c(CC=C(C)C)c(O[C@@H]4O[C@H](CO)[C@@H](O)[C@H](O)[C@H]4O)cc(O)c3c(=O)c2O[C@@H]2O[C@@H](C)[C@H](O)[C@@H](O)[C@H]2O)cc1 [Icariin] | 1 | 1.06 | 0.803 | 0.924
11 | COc1ccc2cc(CCC(C)=O)ccc2c1 [Nabumetone] | 0.915 | 0.99 | 0.818 | 1
12 | O=C(CCCN1CC=C(n2c(=O)[nH]c3ccccc32)CC1)c1ccc(F)cc1 [Droperidol] | 1.11 | 1.14 | 0.885 | 1.12
13 | CCO[C@@H]1OC(=O)C[C@@H]1NC(=O)[C@@H]1CCCN1C(=O)[C@@H](NC(=O)c1ccc(N)c(Cl)c1)C(C)(C)C | 0.968 | 1.18 | 0.898 | 1.09
14 | O=C(Nc1cc(C(F)(F)F)ccc1N1CCCCC1)c1ccncc1 | 1.01 | 1.1 | 0.908 | 1.05
15 | CCCC[C@@H](C=O)NC(=O)[C@H](CC(C)C)NC(=O)OCc1ccccc1 [Calpeptin] | 0.825 | 1.01 | 0.836 | 0.716
16 | Cc1ccc(NC(=O)c2ccc(CN3CCN(C)CC3)cc2)cc1Nc1nc(-c2cccnc2)cs1 [Masitinib (AB1010)] | 1.29 | 1.09 | 0.779 | 0.775
17 | COc1nc(C)nc(Cl)c1NC1=NCCN1 [Moxonidine] | 0.917 | 1.08 | 0.926 | 1.1
18 | Cc1ccc(S(=O)(=O)NC(=O)NN2CC3CCCC3C2)cc1 (stereo unspecified) [Gliclazide] | 0.92 | 1.07 | 1.03 | 1.04
19 | Cc1cc(Cn2cnc3c2CC(C(=O)O)N(C(=O)C(c2ccccc2)c2ccccc2)C3)ccc1N(C)C (stereo unspecified) | 0.819 | 1.03 | 0.659 | 0.918
20 | O=c1c(O)c(-c2cc(O)c(O)c(O)c2)oc2cc(O)cc(O)c12 [Myricetin] | 0.91 | 1.03 | 0.877 | 0.992
21 | O=c1ncccn1[C@@H]1O[C@H](CO)[C@@H](O)[C@H]1O [Zebularine] | 0.97 | 1.06 | 0.676 | 0.938
22 | O=C(CCCCCCNC(=O)c1cnc(N(c2ccccc2)c2ccccc2)nc1)NO [Rocilinostat (ACY-1215)] | 0.708 | 0.801 | 0.34 | 0.29
23 | NC(CO)(CO)CO [Trometamol] | 0.775 | 1.1 | 0.811 | 1.11
24 | Clc1ccc(C(Cn2ccnc2)OCc2c(Cl)cccc2Cl)c(Cl)c1 (stereo unspecified) [Isoconazole nitrate] | 0.855 | 1.05 | 0.545 | 0.894
25 | CNc1nc(Nc2cnn([C@H]3CCN(C4COC4)C[C@@H]3F)c2Cl)ncc1C(F)(F)F | 0.945 | 0.991 | 0.995 | 0.718
26 | NC(=O)N1c2ccccc2C=Cc2ccccc21 [Carbamazepine] | 1.01 | 1.23 | 0.922 | 1.07
27 | CC(C)n1nc(-c2cc3cc(O)ccc3[nH]2)c2c(N)ncnc21 | 0.422 | 0.417 | 0.12 | 0.117
28 | O=c1cc(-c2ccc(O)cc2)oc2cc(O)cc(O)c12 [Apigenin] | 1.03 | 1.14 | 1.01 | 1.14
29 | CO[C@H]1/C=C/O[C@@]2(C)Oc3c(C)c(O)c4c(c3C2=O)C2=NC3(CCN(CC(C)C)CC3)NC2=C(NC(=O)/C(C)=C\C=C\[C@H](C)[C@H](O)[C@@H](C)[C@@H](O)[C@@H](C)[C@H](OC(C)=O)[C@@H]1C)C4=O [Rifabutin] | 1.01 | 1.1 | 0.608 | 0.932
